About 2,200 (0.71%) of roughly 310,000 compounds showed an effect of 50% or more. The effect is printed as a negative number. Some of the results follow.
biological target: human ether-à-go-go-related gene (hERG) potassium channel (human, UniProt Q12809); experiment: primary screen, population patch clamp on CHO cells stably expressing hERG
Sequence (Q12809 whole entry, looked up): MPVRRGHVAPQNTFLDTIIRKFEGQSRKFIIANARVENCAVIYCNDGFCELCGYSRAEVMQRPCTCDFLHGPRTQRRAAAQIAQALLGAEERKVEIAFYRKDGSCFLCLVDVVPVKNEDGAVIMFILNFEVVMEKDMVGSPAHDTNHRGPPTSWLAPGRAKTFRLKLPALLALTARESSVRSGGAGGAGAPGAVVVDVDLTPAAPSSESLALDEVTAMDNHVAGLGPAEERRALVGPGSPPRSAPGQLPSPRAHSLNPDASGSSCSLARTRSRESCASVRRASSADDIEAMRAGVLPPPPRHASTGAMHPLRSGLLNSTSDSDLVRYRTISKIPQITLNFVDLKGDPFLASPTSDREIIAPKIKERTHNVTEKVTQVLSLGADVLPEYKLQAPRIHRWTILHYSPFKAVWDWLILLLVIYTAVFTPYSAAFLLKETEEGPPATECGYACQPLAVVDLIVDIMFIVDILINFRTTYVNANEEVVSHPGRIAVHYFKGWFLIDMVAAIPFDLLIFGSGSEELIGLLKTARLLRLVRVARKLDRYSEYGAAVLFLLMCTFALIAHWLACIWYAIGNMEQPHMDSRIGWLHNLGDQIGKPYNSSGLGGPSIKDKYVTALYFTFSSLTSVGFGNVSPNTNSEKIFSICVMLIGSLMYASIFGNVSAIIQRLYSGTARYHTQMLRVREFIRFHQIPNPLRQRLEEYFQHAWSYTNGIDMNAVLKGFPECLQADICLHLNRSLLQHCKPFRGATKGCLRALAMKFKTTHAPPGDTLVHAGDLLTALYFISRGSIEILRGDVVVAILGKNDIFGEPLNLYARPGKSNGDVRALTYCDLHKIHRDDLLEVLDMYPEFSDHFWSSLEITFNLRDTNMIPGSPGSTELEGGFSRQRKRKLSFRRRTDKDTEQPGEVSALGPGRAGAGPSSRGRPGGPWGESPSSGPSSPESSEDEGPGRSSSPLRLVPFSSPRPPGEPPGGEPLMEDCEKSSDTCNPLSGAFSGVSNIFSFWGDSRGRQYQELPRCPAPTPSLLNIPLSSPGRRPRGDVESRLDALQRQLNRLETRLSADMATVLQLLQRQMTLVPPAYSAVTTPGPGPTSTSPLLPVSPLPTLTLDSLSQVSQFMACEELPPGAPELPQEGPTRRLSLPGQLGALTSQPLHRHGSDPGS

Row | SMILES | hERG current change (%, negative = inhibition) at 1uM [%]
1 | Cn1c(N)c(S(=O)(=O)N2CCN(c3ccccc3Cl)CC2)c(=O)n(C)c1=O | 8.92
2 | Cc1ccc(C(=O)c2c3ccc([N+](=O)[O-])cc3[n+]([O-])n2CCCC(N)=O)cc1 | -11.4
3 | CCOC(=O)C(C)(C)Oc1cccc2c1S(=O)(=O)c1ccccc1-2 | 6.97
4 | O=C(Nc1ccc(S(=O)(=O)NCc2ccco2)cc1)c1ccc(F)cc1 | 9.05
5 | CCCS(=O)(=O)N1CCC(C(=O)N2CCOCC2)CC1 | 1.97
6 | COc1cc(/C=C/C(=O)N2CCN(c3ccccn3)CC2)cc(OC)c1OC | 10.2
7 | Cc1ccc(-c2c(C#N)c(N)nc3c2CCCC3)s1 | 5.7
8 | CC(C)c1onc(C(=O)N2CCC(C(N)=O)CC2)c1[N+](=O)[O-] | 13
9 | COc1cc(C#Cc2c(-c3cncn3C)n(C)c3ccc(-c4ccc5[nH]ccc5c4)cc23)cc(OC)c1 | 17.2
10 | Cc1cc(=O)[nH]c(SCC2(O)C3CC4CC(C3)CC2C4)n1 (stereo not drawn) | 14.7
11 | CCOc1ccc(-n2c(=O)c3sccc3n(CC(=O)NCC3CCCO3)c2=O)cc1 (stereo not drawn) | 11.9
12 | CCOc1ccc(-c2cc(CCCC(=O)NCCc3ccccc3)no2)cc1 | 6.07
13 | NC(=O)[C@H]1CC2(CC(c3cccc(NC(=O)[C@H]4CCC(=O)N4)c3)=NO2)CN1C(=O)CC(c1ccccc1)c1ccccc1 (stereo partly drawn) | 5.55
14 | CCCCn1c(N)c(N(CC(C)C)C(=O)c2cccc(S(=O)(=O)N3CCN(C)CC3)c2)c(=O)[nH]c1=O | -7.64
15 | Cc1cnc(C(=O)Nc2nccs2)cn1 | -3.21
16 | CC(C)CN(CC(C)C)S(=O)(=O)N1CCC(C(=O)NCCc2ccc(Cl)cc2)CC1 | 13.3
17 | CN1CCN(C(=S)NC(=O)/C=C/c2cccc3ccccc23)CC1 | 3.7
18 | NC(=S)Nc1cccc(-c2n[nH]c(=S)o2)c1 | 15.2
19 | O=C(CCNS(=O)(=O)c1ccc(Br)cc1)NCc1cccs1 | 6.54
20 | Cc1ccc(C)c(N(CC(=O)N(C)C)S(C)(=O)=O)c1 | 12.6
21 | O=C(O)CC12CSc3[nH]c(=O)sc3C1c1ccccc1OC2=O (stereo not drawn) | 17.6
22 | COc1cccc(NC(=O)c2ccccc2C(F)(F)F)c1 | -4.05
23 | COc1ccc(OCC(=O)N2CCN(CC3CC4C=CC3C4)CC2)cc1 (stereo not drawn) | -16.5

Row | SMILES | hERG current change (%, negative = inhibition) at 1uM [%]
24 | CN(C)Cc1c(O)ccc2[nH]cnc12.Cl | -6.14
25 | CC(C)N1CCc2c(sc(NC(=O)CCS(=O)(=O)c3ccccc3)c2C(N)=O)C1.Cl | -2.04
26 | Cn1c(CC(=O)NNC(=O)c2cccnc2)nc2ccccc21 | 6.53
27 | COc1ccc(-c2noc(CCCC(=O)NCCc3ccccc3)n2)cc1OC | 15.2
28 | COCC1CCN(C(=O)c2ccc3oc(CCCc4ccccc4)nc3c2)C1 (stereo not drawn) | -18.5
29 | CC1CCN(CC(O)COc2cccc(F)c2)CC1 (stereo not drawn) | -0.91
30 | COc1ccc(Cl)cc1NC(=O)Nc1ccc(C(=O)N2CCOCC2)cc1 | 8.97
31 | COCCCN1C(=O)C(=O)/C(=C(/O)c2ccc(OCC(C)C)cc2)C1c1cccnc1 (stereo not drawn) | 6.94
32 | c1ccc(-c2cn3nc(-c4ccccc4)cnc3n2)cc1 | 22.9
33 | CCn1c(COc2cccc3ccccc23)nnc1SCC(=O)OC1CCCCC1 | 6.76
34 | COC(=O)c1ccc(C(=O)OC)c(NC(=S)N2CCN(c3ccccn3)CC2)c1 | 4.91
35 | COc1ccc(C)cc1S(=O)(=O)NC1CC1 | 19
36 | O=C(NNC(=O)C1C2CCCCC21)c1coc(=O)c(Br)c1 (stereo not drawn) | 10.5
37 | CC(Oc1ccccc1)C(=O)Nc1c2c(nn1-c1ccccc1)CS(=O)(=O)C2 (stereo not drawn) | 17.6
38 | O=C(Cc1cc(=O)oc2cc(O)ccc12)N[C@@H](Cc1c[nH]c2ccccc12)C(=O)O | 13.2
39 | CNC(=O)COC(=O)c1cc(=O)[nH]c2ccccc12 | 9.71
40 | Cc1ccc(C(=O)O)cc1S(=O)(=O)N1CCSCC1 | 9.97
41 | CCC(CC)C(=O)NCc1cccnc1 | 13.4
42 | Cc1ccc(N=CC=C2OC(C)(C)C(C)(C)O2)cc1 | 3.41
43 | CCn1c(SCC(N)=O)nc2c(c1=O)C1(CCCC1)Cc1ccccc1-2 | 6.12
44 | O=C(NCc1ccccc1)c1ccc(C2SCC(=O)N2Cc2ccccc2)cc1 (stereo not drawn) | 12.3
45 | Cc1occc1C(=O)NNC(=O)C1CC1 | 13.3
